Values of other authors, collected in publication PMC11006913.
Residue numbers refer to the chain shown, from its start. This is one part of the list.

Assays:
PBX4 (Homo sapiens) = target: T1, PBX4 (Homo sapiens) (UniProt Q9BYU1); conditions: PBM; conditions not shown; double strand, one strand shown; scale: upbm affinity estimate (log intensity, higher = more binding, comparable within an allelic series)
T1 sequence: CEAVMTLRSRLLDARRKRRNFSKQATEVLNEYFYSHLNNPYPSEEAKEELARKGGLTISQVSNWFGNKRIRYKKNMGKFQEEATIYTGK

[1] = target: T2, PBX4 R215Q (Homo sapiens) (UniProt Q9BYU1); conditions: PBM; conditions not shown; double strand, one strand shown; scale: upbm affinity estimate (log intensity, higher = more binding, comparable within an allelic series)
T2 sequence: T1 sequence with R19Q

## AGCGAGAG [8-mer AGCGAGAG]
PBX4 (Homo sapiens)
  binding signal: 9.92
[1]
  binding signal: 9.93

## CTCATCAC [8-mer CTCATCAC]
PBX4 (Homo sapiens)
  binding signal: 10.8
[1]
  binding signal: 10.2

## CCGTATCG [8-mer CCGTATCG]
PBX4 (Homo sapiens)
  binding signal: 10
[1]
  binding signal: 9.9

## CTCGTCAC [8-mer CTCGTCAC]
PBX4 (Homo sapiens)
  binding signal: 10.9
[1]
  binding signal: 10.2

## AGAACTTC [8-mer AGAACTTC]
PBX4 (Homo sapiens)
  binding signal: 9.92
[1]
  binding signal: 9.94

## ATTGATGA [8-mer ATTGATGA]
PBX4 (Homo sapiens)
  binding signal: 10.8
[1]
  binding signal: 10.2

## TCATCAAA [8-mer TCATCAAA]
PBX4 (Homo sapiens)
  binding signal: 10.8
[1]
  binding signal: 10.2

## CGGGATGC [8-mer CGGGATGC]
PBX4 (Homo sapiens)
  binding signal: 9.77
[1]
  binding signal: 9.76

## ATACCCAG [8-mer ATACCCAG]
PBX4 (Homo sapiens)
  binding signal: 9.93
[1]
  binding signal: 9.9

## GCCGCGCA [8-mer GCCGCGCA]
PBX4 (Homo sapiens)
  binding signal: 9.66
[1]
  binding signal: 9.67

## AGGCGGGC [8-mer AGGCGGGC]
PBX4 (Homo sapiens)
  binding signal: 9.7
[1]
  binding signal: 9.68

## CCCCACAA [8-mer CCCCACAA]
PBX4 (Homo sapiens)
  binding signal: 9.95
[1]
  binding signal: 9.93

## CGTCAATC [8-mer CGTCAATC]
PBX4 (Homo sapiens)
  binding signal: 10.7
[1]
  binding signal: 10.1

## GGATGGAC [8-mer GGATGGAC]
PBX4 (Homo sapiens)
  binding signal: 9.98
[1]
  binding signal: 9.9

## TCTCATCA [8-mer TCTCATCA]
PBX4 (Homo sapiens)
  binding signal: 10.7
[1]
  binding signal: 10.2

## ACGCTGTC [8-mer ACGCTGTC]
PBX4 (Homo sapiens)
  binding signal: 9.94
[1]
  binding signal: 9.88

## CGAGATAG [8-mer CGAGATAG]
PBX4 (Homo sapiens)
  binding signal: 9.94
[1]
  binding signal: 9.87

## ACGCTACT [8-mer ACGCTACT]
PBX4 (Homo sapiens)
  binding signal: 9.87
[1]
  binding signal: 9.87

## CCCAGACA [8-mer CCCAGACA]
PBX4 (Homo sapiens)
  binding signal: 9.87
[1]
  binding signal: 9.85

## CGACCCTA [8-mer CGACCCTA]
PBX4 (Homo sapiens)
  binding signal: 9.73
[1]
  binding signal: 9.78

## CGTCAAAG [8-mer CGTCAAAG]
PBX4 (Homo sapiens)
  binding signal: 10.8
[1]
  binding signal: 10.2

## CCTCAGAG [8-mer CCTCAGAG]
PBX4 (Homo sapiens)
  binding signal: 9.84
[1]
  binding signal: 9.83

## GCACAAGC [8-mer GCACAAGC]
PBX4 (Homo sapiens)
  binding signal: 9.84
[1]
  binding signal: 9.84

## GCGGGTTA [8-mer GCGGGTTA]
PBX4 (Homo sapiens)
  binding signal: 9.96
[1]
  binding signal: 9.88

## AAAACCGG [8-mer AAAACCGG]
PBX4 (Homo sapiens)
  binding signal: 9.98
[1]
  binding signal: 9.84

## CGGATACG [8-mer CGGATACG]
PBX4 (Homo sapiens)
  binding signal: 9.92
[1]
  binding signal: 9.92

## CACGTCCC [8-mer CACGTCCC]
PBX4 (Homo sapiens)
  binding signal: 9.9
[1]
  binding signal: 9.81

## CATACCGG [8-mer CATACCGG]
PBX4 (Homo sapiens)
  binding signal: 10
[1]
  binding signal: 9.85

## GGGTGCGA [8-mer GGGTGCGA]
PBX4 (Homo sapiens)
  binding signal: 9.75
[1]
  binding signal: 9.83

## AAGGACGC [8-mer AAGGACGC]
PBX4 (Homo sapiens)
  binding signal: 9.98
[1]
  binding signal: 9.9

## AAAAATCG [8-mer AAAAATCG]
PBX4 (Homo sapiens)
  binding signal: 9.99
[1]
  binding signal: 9.94

## GCGACTTA [8-mer GCGACTTA]
PBX4 (Homo sapiens)
  binding signal: 9.86
[1]
  binding signal: 9.86

## GCGAGCAC [8-mer GCGAGCAC]
PBX4 (Homo sapiens)
  binding signal: 9.83
[1]
  binding signal: 9.77

## CATTGACG [8-mer CATTGACG]
PBX4 (Homo sapiens)
  binding signal: 10.8
[1]
  binding signal: 10.2

## ATACATCA [8-mer ATACATCA]
PBX4 (Homo sapiens)
  binding signal: 10.6
[1]
  binding signal: 10.2

## CACGACAC [8-mer CACGACAC]
PBX4 (Homo sapiens)
  binding signal: 9.91
[1]
  binding signal: 9.9

## GGCCGCAC [8-mer GGCCGCAC]
PBX4 (Homo sapiens)
  binding signal: 9.81
[1]
  binding signal: 9.79

## GGAATTCC [8-mer GGAATTCC]
PBX4 (Homo sapiens)
  binding signal: 9.95
[1]
  binding signal: 9.87

## CGGCCGAG [8-mer CGGCCGAG]
PBX4 (Homo sapiens)
  binding signal: 9.71
[1]
  binding signal: 9.69

## GTAGTAAC [8-mer GTAGTAAC]
PBX4 (Homo sapiens)
  binding signal: 10
[1]
  binding signal: 9.92

## GAAGACCA [8-mer GAAGACCA]
PBX4 (Homo sapiens)
  binding signal: 9.93
[1]
  binding signal: 9.85

## CGTCAAAA [8-mer CGTCAAAA]
PBX4 (Homo sapiens)
  binding signal: 10.9
[1]
  binding signal: 10.3

## ACATATCA [8-mer ACATATCA]
PBX4 (Homo sapiens)
  binding signal: 10.8
[1]
  binding signal: 10.3

## GGTTCGGA [8-mer GGTTCGGA]
PBX4 (Homo sapiens)
  binding signal: 9.86
[1]
  binding signal: 9.83

## GCGTCTGA [8-mer GCGTCTGA]
PBX4 (Homo sapiens)
  binding signal: 9.88
[1]
  binding signal: 9.83

## GCCAAGTA [8-mer GCCAAGTA]
PBX4 (Homo sapiens)
  binding signal: 9.92
[1]
  binding signal: 9.84

## ACGTCAAA [8-mer ACGTCAAA]
PBX4 (Homo sapiens)
  binding signal: 10.8
[1]
  binding signal: 10.2

## ATATGACG [8-mer ATATGACG]
PBX4 (Homo sapiens)
  binding signal: 10.6
[1]
  binding signal: 10.1

## TCATGTCA [8-mer TCATGTCA]
PBX4 (Homo sapiens)
  binding signal: 11
[1]
  binding signal: 10.2

## GGTAGCGA [8-mer GGTAGCGA]
PBX4 (Homo sapiens)
  binding signal: 9.95
[1]
  binding signal: 9.88

## CAAGAGAG [8-mer CAAGAGAG]
PBX4 (Homo sapiens)
  binding signal: 9.91
[1]
  binding signal: 9.87

## CATGCCAG [8-mer CATGCCAG]
PBX4 (Homo sapiens)
  binding signal: 9.9
[1]
  binding signal: 9.83

## AGCAAAGG [8-mer AGCAAAGG]
PBX4 (Homo sapiens)
  binding signal: 9.93
[1]
  binding signal: 9.92

## ATTGACGA [8-mer ATTGACGA]
PBX4 (Homo sapiens)
  binding signal: 10.8
[1]
  binding signal: 10.2

## ACCGCGTA [8-mer ACCGCGTA]
PBX4 (Homo sapiens)
  binding signal: 9.92
[1]
  binding signal: 9.85

## GGCTGCAA [8-mer GGCTGCAA]
PBX4 (Homo sapiens)
  binding signal: 9.83
[1]
  binding signal: 9.8

## AATTCGTG [8-mer AATTCGTG]
PBX4 (Homo sapiens)
  binding signal: 10
[1]
  binding signal: 9.94

## TACTGCTA [8-mer TACTGCTA]
PBX4 (Homo sapiens)
  binding signal: 9.9
[1]
  binding signal: 9.94

## CGCTGATA [8-mer CGCTGATA]
PBX4 (Homo sapiens)
  binding signal: 10
[1]
  binding signal: 9.9

## GCGAAAAC [8-mer GCGAAAAC]
PBX4 (Homo sapiens)
  binding signal: 9.85
[1]
  binding signal: 9.8

## CCCGTACC [8-mer CCCGTACC]
PBX4 (Homo sapiens)
  binding signal: 9.77
[1]
  binding signal: 9.81

## TCATCACA [8-mer TCATCACA]
PBX4 (Homo sapiens)
  binding signal: 10.7
[1]
  binding signal: 10.2
